{"source": "PubChem BioAssay AID1240", "about": "(Sanford-Burnham Center for Chemical Genomics, 2008)", "note": "In all, about 50,000 compounds went through this assay and about 800 (1.6%) showed an effect of 50% or more. This is one part of the list."}
{"molecular_target": "Bcl-2-like protein 10 (Homo sapiens) (UniProt Q9HD36)", "sequence (Q9HD36 whole entry, looked up)": "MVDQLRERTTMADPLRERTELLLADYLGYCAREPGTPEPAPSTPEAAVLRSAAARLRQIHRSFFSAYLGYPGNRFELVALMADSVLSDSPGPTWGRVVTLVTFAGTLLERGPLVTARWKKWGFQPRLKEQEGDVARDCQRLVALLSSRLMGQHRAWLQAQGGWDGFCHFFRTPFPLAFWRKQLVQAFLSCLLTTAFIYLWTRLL", "assay": "Phenotype converters, Bcl-B/TR3 peptide binding displacement, primary biochemical FP (AID 1240);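 note: 0% = Bcl-B with tracer peptide and DMSO and 100% = tracer peptide lacking Bcl-B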", "settings": "GST-Bcl-B / FITC-TR3 peptide fluorescence polarization; stronger effect = higher value; compound at 3.75 mg/L", "units": {"displacement": "%"}}
{"smiles": "COc1ccc(-c2cc(C(=O)Nc3ccc([N+](=O)[O-])cc3)c3ccccc3n2)cc1", "displacement": 14.9}
{"smiles": "COc1ccc(C2CC(c3c(-c4ccccc4)c4cc(Br)ccc4[nH]c3=O)=NN2C(=O)CCC(=O)O)cc1", "note": "(stereo not given)", "displacement": 13.8}
{"smiles": "CCn1c2ccccc2c2cc(/C=C(\\C#N)C(N)=O)ccc21", "displacement": -7.4}
{"smiles": "O=C(Cn1c(NCCO)nc2ccccc21)c1cccc2ccccc12", "displacement": -12.2}
{"smiles": "CSc1ccc(/C=N\\NC(=O)C2COc3cc4ccccc4cc3O2)cc1", "note": "(stereo not given)", "displacement": -11.4}
{"smiles": "COc1ccc(CSc2nc3ccccc3n2C)cc1F", "displacement": -9.9}
{"smiles": "O=C1C2C3C=CC(C3)C2C(=O)N1/N=C/c1cccc(I)c1", "note": "(stereo not given)", "displacement": 10.3}
{"smiles": "Cc1ccc(OCCCCn2ccnc2)cc1C", "displacement": 9}
{"smiles": "O=c1[nH]c(Nc2nc3ccccc3o2)nc2ccccc12", "displacement": -3.4}
{"smiles": "CCOC(=O)c1c2c(n(-c3ccccc3)c1C)C=C(Br)C(=O)C2=O", "displacement": 7.3}
{"smiles": "CNC(=O)OCc1ccc(-c2ccc(Cl)cc2)o1", "displacement": -4.5}
{"smiles": "COc1ccc(OC)c(NCC(O)Cn2c3ccccc3c3ccccc32)c1", "note": "(stereo not given)", "displacement": -2.3}
{"smiles": "C=CCn1c(=S)[nH]c2sc3c(c2c1=O)CCC(C(C)(C)C)C3", "note": "(stereo not given)", "displacement": -11.8}
{"smiles": "O=C(Nc1ccc(N2CCOCC2)cc1)c1ccc(-c2ccccc2[N+](=O)[O-])o1", "displacement": -0.4}
{"smiles": "CCC(C)C(=O)N1c2cc(C)ccc2-c2c(ssc2=S)C1(C)C", "note": "(stereo not given)", "displacement": -2.7}
{"smiles": "CCOC(=O)c1c(C)n(CC(O)CNC(C)C)c2ccc(OC)cc12", "note": "(stereo not given)", "displacement": -7.6}
{"smiles": "COC(=O)C(NC(=O)C12CC3CC(CC(C3)C1)C2)C(C)C", "note": "(stereo not given)", "displacement": 13}
{"smiles": "COc1ccc(Cl)cc1NC(=O)c1ccncc1", "displacement": 1.1}
{"smiles": "COc1cc(NC(=O)Cc2ccc(Cl)cc2)c(OC)cc1Cl", "displacement": 14.5}
{"smiles": "O=C1N=c2ccccc2=C1c1sc(=S)n(-c2ccc(C(=O)O)cc2)c1O", "displacement": 2}
{"smiles": "O=C(NC1=Nc2cccc3cccc1c23)c1cccc(C(F)(F)F)c1", "displacement": 62.1}
{"smiles": "O=C(Nc1ccc(Cl)cc1)NC1CCCCCCC1", "displacement": -7.2}
{"smiles": "O=c1c(Cl)c(Cl)cnn1Cc1c(Cl)ccc(Cl)c1Cl", "displacement": 8.3}
{"smiles": "O=C1N2CN(C(c3ccccc3)c3ccccc3)CN=C2SC1(CO)CO", "displacement": 3}
{"smiles": "Cc1cccc(NC(=O)/C(=C/c2cccc([N+](=O)[O-])c2)NC(=O)c2cccs2)c1", "displacement": -1.8}
{"smiles": "CCc1cccc(C)c1NC(=O)CCC(=O)O", "displacement": -6.6}
{"smiles": "Cc1cc(/C=N\\Nc2ccc([N+](=O)[O-])cn2)c(C)n1-c1ccccc1F", "displacement": 10.1}
{"smiles": "O=C(NC(c1ccccc1)c1ccccc1)c1ccncc1", "displacement": 2}
{"smiles": "COc1cccc(C2NC(=O)NC(C)=C2C(=O)OCCOC(C)C)c1", "note": "(stereo not given)", "displacement": 3.3}
{"smiles": "O=C(c1ccc(S(=O)(=O)N2CCCCC2)cc1)N1CCN(Cc2ccc3c(c2)OCO3)CC1", "displacement": -7.9}
{"smiles": "O=C(NCCC(c1ccccc1)c1ccccc1)C1CCCCC1", "displacement": 0.6}
{"smiles": "Cc1cc(Cl)ccc1OC(C)C(=O)NCC1CCCO1", "note": "(stereo not given)", "displacement": 1.6}
{"smiles": "COCCNC(=O)COc1ccc(Cl)cc1Br", "displacement": -9.3}
{"smiles": "O=C(Nc1ccccc1O)c1ccc(Oc2ccc(C(=O)Nc3ccccc3O)cc2)cc1", "displacement": -3}
{"smiles": "CSc1ccc(/C=C2/SC(=O)N(CN3CCOCC3)C2=O)cc1", "displacement": 2.3}
{"smiles": "Clc1ccc(-c2noc(CCc3ccccc3)n2)cc1", "displacement": 13.2}
{"smiles": "Cc1ccc(N(Cc2ccco2)S(=O)(=O)c2ccc([N+](=O)[O-])cc2)cc1", "displacement": -4.5}
{"smiles": "COc1cccc(C(=O)N2c3ccccc3C(N(C(=O)C(F)(F)F)c3ccccc3)CC2C)c1", "note": "(stereo not given)", "displacement": 6.9}
{"smiles": "O=C(Nc1sc2c(c1C(=O)Nc1ccccn1)CCCCC2)c1ccccc1F", "displacement": -3}
{"smiles": "CCOc1ccc(-c2cc(C(=O)N3CCN(Cc4ccccc4)CC3)c3ccccc3n2)cc1", "displacement": 2.8}
{"smiles": "O=C1OC(c2ccc(Oc3ccccc3)cc2)=C/C1=C/c1ccco1", "displacement": 29.1}
{"smiles": "O=C1C=CC(=NOC(=O)c2ccccc2Br)C=C1", "displacement": 11.3}
{"smiles": "CCCCC/C(=N\\NC(=O)c1cccnc1)c1ccccc1", "displacement": 16.4}
{"smiles": "CCOC(=O)c1sc2nc(C)ccc2c1N", "displacement": -7.9}
{"smiles": "O=C1CC(Sc2ccccc2)C(=O)N1c1ccc(Cc2ccc(N3C(=O)CC(Sc4ccccc4)C3=O)cc2)cc1", "note": "(stereo not given)", "displacement": -0.3}
{"smiles": "Cc1ccc(NC2CC(=O)N(c3cccc(C(F)(F)F)c3)C2=O)cc1", "note": "(stereo not given)", "displacement": -3.8}
{"smiles": "COc1ccccc1CNC(=O)C/C(C)=N/NC(=O)C(=O)NC(C)C", "displacement": -14.6}
{"smiles": "O=C(Nc1nc(-c2ccccc2)cs1)c1ccncc1", "displacement": -4.8}
{"smiles": "O=C1NC(=O)N(c2cccc(Br)c2)C(=O)/C1=C/c1ccc(O)c(Cl)c1", "displacement": 10.7}
{"smiles": "CCOC(=O)c1sc(NC(=O)Nc2cccc(Cl)c2)c(C(N)=O)c1C", "displacement": -1.3}
{"smiles": "CS(=O)(=O)N(CC(=O)O)c1cc(Cl)cc(Cl)c1", "displacement": 12.1}
{"smiles": "C=CCn1c(CCCO)nc2ccccc21", "displacement": 3.1}
{"smiles": "O=C1N=C(N2CCCCC2)CN1c1ccccc1", "displacement": -6.7}
{"smiles": "COc1cccc(NC(=O)c2sc3cc(C)ccc3c2Cl)c1", "displacement": 9}
{"smiles": "CC(C)c1ccc(C(=O)Nc2cc(Cl)cc(Cl)c2)cc1", "displacement": 13.9}
{"smiles": "O=C(CSc1nnnn1-c1ccccc1)NN1C(=O)c2ccccc2C1=O", "displacement": -17.5}
{"smiles": "CN(CCCC(=O)O)S(=O)(=O)c1ccc2c(c1)C(=O)c1cc(S(=O)(=O)N(C)CCCC(=O)O)ccc1-2", "displacement": -4.1}
{"smiles": "CCN1C(=O)/C(=C\\c2ccc(-c3ccc(C(=O)OC)cc3)o2)SC1=S", "displacement": 12.9}
{"smiles": "COc1ccc(NC(=O)CSc2ccncc2)c([N+](=O)[O-])c1", "displacement": 11.4}
{"smiles": "COc1ccc(C2NCCc3c2[nH]c2ccccc32)cc1", "note": "(stereo not given)", "displacement": 0.9}
{"smiles": "O=C(/C(=C/c1ccccc1[N+](=O)[O-])c1nc2ccccc2[nH]1)c1ccccc1", "displacement": 11.4}
{"smiles": "O=C(Cc1ccc([N+](=O)[O-])cc1)N/N=C/c1ccc(OC/C=C/Cl)cc1", "displacement": -7.4}
{"smiles": "CCOC(=O)C1=C(C)N=c2s/c(=C\\c3ccc(F)cc3)c(=O)n2C1c1cccs1", "note": "(stereo not given)", "displacement": 12.7}
{"smiles": "Cc1csc(NC(=O)c2cccnc2)n1", "displacement": 17.3}
{"smiles": "O=C(C1c2ccccc2Oc2ccccc21)N1CCN(c2cccc(Cl)c2)CC1", "displacement": -4}
{"smiles": "C(=C\\c1ccccc1)/CSc1nnc(-c2ccncc2)n1-c1ccccc1", "displacement": -17.2}
{"smiles": "COc1ccc(NC(=O)c2cccc(N3C(=O)c4ccc(C(=O)Nc5ccc(OC)cc5)cc4C3=O)c2)cc1", "displacement": -10.8}
{"smiles": "O=C(Nc1c(Cl)cccc1Cl)c1ccc(Cl)c(Cl)c1", "displacement": -5.7}
{"smiles": "CN(C)c1ccc(/C=C2\\N=C(c3ccc4c(c3)OCO4)OC2=O)cc1", "displacement": 1.8}
{"smiles": "COC(=O)C1C(c2ccccc2)N(c2ccccc2)OC1(C)O", "note": "(stereo not given)", "displacement": 7.7}
